Data: PubChem BioAssay AID1345082 (National Center for Advancing Translational Sciences (NCATS), 2018)
Several values for one entry are separate records, joined by “and”; a condition that tells them apart may be missing. Equal entries are not always repeated. About 4,000 (4.3%) of roughly 94,000 compounds were called active. The inconclusive results got no clear call from the source; some entries with a clear call stand among them for comparison. The call rests on the fitted dose curve; in most records, active means well fitted inhibition curve with a large enough effect; inconclusive means small, poorly fitted or top-dose-only effect; inactive means no such curve, though single readings can be large or run the other way. A potency beside an inconclusive call is a rough fit, not a confirmed value.

Test: Cytotoxic Profiling in NIH 3T3 Cell Line of Diverse Libraries Using Quantitative High-Throughput Screening; further: nearly all actives have a fitted effect of over 55% in size
Settings: NIH 3T3 viability, CellTiter-Glo ATP luminescence, 48-72 h; series mostly up to 96.7 µM
Summary of the method: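 NIH 3T3 cells at 400 cells/well received 23 nL of compound by pintool and were incubated 48 or 72 h at 37 °C. Viability was read as ATP-coupled CellTiter-Glo luminescence.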
Potency means the concentration at half of the fitted maximal effect; tags describe the fitted curve by direction and shape.

Row | SMILES | Potency
1 | O=C(c1ccc(-c2cccc(O)c2)nc1)N1CCCN(c2ncccn2)CC1 | inactive
2 | CCCNC(=O)N1CCC(Cc2noc(C3CC3)n2)C1 (stereo unspecified) | inactive
3 | FC(F)(F)c1ccc(N2CCC(N[C@@H]3C[C@@H]4OCC[C@@H]43)CC2)nc1 | inconclusive: 50.1 µM [inhibitor, partial curve, poor fit]
4 | COc1ccc2c(c1)OC[C@@H]1CN(CCC#N)C(=O)CCN(C(=O)COc3ccccc3)[C@H]21 | inconclusive: 39.8 µM [inhibitor, partial curve, poor fit]
5 | C=CCNC(=O)c1ccn2cncc2c1 | inactive
6 | O=C(c1ccc(C(F)(F)F)cc1)N1CCC2(C1)C(=O)N(c1ccccc1)c1ccccc12 (stereo unspecified) | inconclusive: 50.1 µM [inhibitor, partial curve, poor fit]
7 | O=C(Nc1nncs1)C1CC(=O)N(c2n[nH]c3cccc(F)c23)C1 (stereo unspecified) | inconclusive: 35.5 µM [inhibitor, single point]
8 | COCCNc1cc(-c2noc([C@@H]3CCCN3CC(C)C)n2)ccn1 | inconclusive: 100 µM [inhibitor, partial curve, poor fit]
9 | O=C(NCC1CN(C(=O)Cc2ccccc2)CC12CN(c1ccccc1)C2)C1CC1 (stereo unspecified) | inconclusive: 100 µM [inhibitor, single point]
10 | CN1CCN(c2cc(=O)c3ccnc(Nc4ccc(F)c(Cl)c4)c3o2)CC1 | active: 100 µM
11 | COc1ccc(CN2CCCC3(C2)C(=NC2CCCCC2)NC(=O)N3c2cc(F)cc(F)c2)cc1 (stereo unspecified) | inconclusive: 44.7 µM [inhibitor, partial curve, poor fit]
12 | O=C1Nc2ccc(-c3ccc4c(c3)OCO4)cc2C(=O)N2C[C@@H](NS(=O)(=O)c3ccc(F)cc3)C[C@@H]12 | inconclusive: 50.1 µM [inhibitor, partial curve, poor fit]
13 | CN1CCC(O)(Cc2nc3c([nH]2)CC(C)(C)CNC3=O)CC1 | inactive
14 | Cc1cc(F)ccc1OC1CN(C(=O)c2ccccn2)C1 | inconclusive: 31.6 µM [inhibitor, partial curve, poor fit]
15 | CC1(C)C(=O)N(CCOc2ccccc2)[C@H]2CN(c3cccc(C(F)(F)F)c3)C[C@@H]2[S+]1(=O)[O-] | active: 11.2 µM
16 | COCCC1(NS(C)(=O)=O)CCN(C(=O)NCCc2ccccc2)CC1 | inactive
17 | Cc1cc(C)c(-c2nc3ncccc3[nH]2)[nH]1 | inactive and inconclusive: 100 µM [inhibitor, partial curve]
18 | COCc1ccc2c(c1)c(OC(C)(C)C(=O)N1CCN(CCO)CC1)nn2Cc1ccccc1 | inconclusive: 70.8 µM [inhibitor, single point]
19 | CCN1CC(c2ccccc2)CC2(CCN(c3cc(N)ncn3)CC2)C1 (stereo unspecified) | inconclusive: 44.7 µM [inhibitor, partial curve, poor fit]
20 | Cc1noc(C)c1S(=O)(=O)N[C@@H]1C[C@H](Cn2cc(-c3cccnc3)nn2)[C@@H](O)[C@H]1O | active: 22.4 µM
21 | Cc1ccc(Nc2ccnc(N3CCN(C(=O)Cc4ccc(F)cc4)CC3)n2)cc1 | active: 31.6 µM
22 | O=C1CC2(CCN(C(=O)c3ccc4c(c3)OCO4)CC2)Oc2cc(Cl)ccc21 | inconclusive: 35.5 µM [inhibitor, partial curve]

Row | SMILES | Potency
23 | CCCNC(=O)C(C)(C)Oc1nn(Cc2ccccc2)c2ccc(COC)cc12 | inconclusive: 89.1 µM [inhibitor, partial curve, poor fit]
24 | CN1CCC(NC(=O)c2cccc3c2CCN3C(=O)Nc2ccccc2)CC1 | inconclusive: 50.1 µM [inhibitor, partial curve, poor fit]
25 | O=C1NCc2ccccc2CC12CCN(C/C=C/c1ccccc1)CC2 | inconclusive: 56.2 µM [inhibitor, partial curve, poor fit]
26 | CCC(=O)N(C1CCOCC1)C1CCN(S(=O)(=O)c2ccccc2)CC1 | inactive
27 | CC(C)n1ccnc1CN1CCc2onc(-c3ccc(Cl)cc3)c2C1 | inconclusive: 50.1 µM [inhibitor, partial curve, poor fit]
28 | CCc1cccc2c(C(CC(=O)NCCc3ccc(OC)c(OC)c3)c3ccccc3OC)c[nH]c12 (stereo unspecified) | inconclusive: 44.7 µM [inhibitor, partial curve, poor fit]
29 | COC(=O)CNC(=O)c1cn2cc(-c3cccc(C(F)(F)F)c3)sc2n1 | inactive
30 | CN1CCC(CNc2ncc(C(C)(C)C(=O)O)c(N3CCOCC3)n2)C1 (stereo unspecified) | inactive
31 | Cc1ccc(C(=O)N(C)C2CCc3nn(CC4CC4)c(=O)n3CC2)c(=O)[nH]1 (stereo unspecified) | inactive
32 | COc1cccc(-c2ccc(C(=O)NCCNC(=O)c3ccc(Cl)nc3)cc2)c1 | inactive
33 | COC(=O)CNC(=O)C1CCN(c2nc3ncccc3o2)CC1 | inactive
34 | Cc1ccc(CN2C(=O)OC(c3cccc(NC(=O)Cc4ccccc4)c3)C2C(=O)NCC(C)C)cc1 (stereo unspecified) | inconclusive: 44.7 µM [inhibitor, partial curve, poor fit]
35 | Cc1noc(C)c1C(=O)NC1CCCc2c1[nH]c1ccc(F)cc21 (stereo unspecified) | inconclusive: 44.7 µM [inhibitor, partial curve, poor fit]
36 | CCCCCNC(=O)c1cc(-c2cccc(OC)c2)nc2c1cnn2C | inconclusive: 35.5 µM [inhibitor, partial curve]
37 | N#Cc1cccc(C(=O)Nc2ccc([C@H]3OCC(=O)N(Cc4ccc(F)cc4)[C@@H]3CO)cc2)c1 | inactive
38 | Cc1ccccc1-c1nc(C2CC(=O)N(c3ccc(F)c(Cl)c3)C2)no1 (stereo unspecified) | inconclusive: 50.1 µM [inhibitor, partial curve, poor fit]
39 | CNC(=O)C1CCCCN1Cc1ccc(-c2cccs2)cc1 (stereo unspecified) | inconclusive: 89.1 µM [inhibitor, partial curve]
40 | COc1cccc(CNC(=O)[C@@H]2C[C@@H](O)CN2C2CCN(C(=O)Cc3cccc(F)c3)CC2)c1 | inactive
41 | c1ccc(OCC2CN(Cc3ccc4[nH]ccc4c3)CC23CN(c2ccccc2)C3)cc1 (stereo unspecified) | active: 25.1 µM
42 | N#Cc1cccc(C(=O)N2CCCC(n3cc(-c4nc(C5CC5)no4)nn3)C2)c1 (stereo unspecified) | inconclusive: 50.1 µM [inhibitor, partial curve, poor fit]
43 | O=C(Cc1ccc(F)cc1)NCCn1ccn2nc(-c3ccc(F)cc3)cc2c1=O | inconclusive: 35.5 µM [inhibitor, partial curve]
44 | COCCN1CCCC[C@]2(C[C@H](C(=O)O)[C@H](c3ccco3)N2C(=O)c2ccccc2)C1=O | inconclusive: 70.8 µM [inhibitor, partial curve, poor fit]

Row | SMILES | Potency
45 | Cc1ccc(CNC(=O)c2ccc3c(c2)CN(Cc2ccc(O)c(F)c2)CCO3)cc1 | inconclusive: 50.1 µM [inhibitor, single point]
46 | Cn1ncc2c(C(=O)NC3CCCC3)cc(-c3ccc(Cl)nc3)nc21 | inactive
47 | O=C1CCCCC(CNC(=O)c2ccc3ccccc3n2)N1 (stereo unspecified) | inactive
48 | Cc1noc(C)c1CN1CCC2(CC1)COCCN2C(=O)OCc1ccccc1 | inactive
49 | FC(F)(F)c1cccc(Nc2cnc3ccc(-n4ccnc4)nn23)c1 | inconclusive: 89.1 µM [inhibitor, single point]
50 | O=C(NCc1cccs1)C1CCCN(Cc2cccc(-c3cccs3)c2)C1 (stereo unspecified) | active: 39.8 µM
51 | Cc1noc(C)c1CN1C[C@@H]2C(C(=O)Nc3ccccc3)=NO[C@@H]2C1 | inconclusive: 44.7 µM [inhibitor, partial curve, poor fit]
52 | O[C@@H]1CC(CNCC2CCCC2)(COc2cccnc2)C[C@@H]1O (stereo partly specified) | inactive
53 | CNC(=O)CCn1ncc2cc(OCc3ccccc3-c3ccc(F)cc3)ccc21 | inconclusive: 56.2 µM [inhibitor, partial curve, poor fit]
54 | COCCC(=O)N1CCCC(Cc2nc(C3CCOCC3)no2)C1 (stereo unspecified) | inactive
55 | CCc1ccccc1NC(=O)Cn1ccn2nc3c(c2c1=O)CCCC3 | inconclusive: 11.2 µM [inhibitor, full curve, poor fit]
56 | N#Cc1ccccc1S(=O)(=O)N[C@H]1CO[C@H]2[C@@H]1OC[C@@H]2n1nnnc1Oc1cccc(N2CCOCC2)c1 | inactive
57 | O=C(Nc1ccc(-c2nnc3n2CCCC3)cc1)c1cccc(Cl)c1 | inconclusive: 50.1 µM [inhibitor, partial curve, poor fit]
58 | COCCN1C(=O)c2ccccc2C(C(=O)Nc2ccccc2O)C12CCCCC2 (stereo unspecified) | inactive
59 | CN(Cc1ccccc1)C(=O)[C@H]1O[C@H](CCN2CCN(c3ccc(F)cc3)CC2)CC[C@@H]1O | inactive
60 | Cn1ncc2c(C(=O)N3CCCCC3)cc(-c3ccc(Cl)cc3Cl)nc21 | inconclusive: 50.1 µM [inhibitor, partial curve, poor fit]
61 | Clc1cc(N2CCC(N3CCOCC3)CC2)n2nccc2n1 | inactive
62 | O=C(c1ccc2nnc(-c3cncc(Cl)c3)n2c1)N1CCOCC1 | inactive
63 | Cc1cc(Cl)ccc1NC(=O)CCn1ccn2nc3c(c2c1=O)CCCC3 | inconclusive: 50.1 µM [inhibitor, partial curve, poor fit]
64 | O=C(c1cc[nH]c1C1CCCNC1)N(Cc1ccc(F)cc1)Cc1cccnc1 (stereo unspecified) | inconclusive: 50.1 µM [inhibitor, partial curve, poor fit]
65 | O=C(c1ccc(F)cc1)N1CCCC(C(=O)N2CCCC(c3nc4ccncc4[nH]3)C2)C1 (stereo unspecified) | inactive
66 | N#Cc1ccc(NC(=S)N[C@H]2CO[C@H]3[C@@H]2OC[C@H]3OC(=O)Nc2ccccc2)cc1 | inconclusive: 44.7 µM [inhibitor, partial curve]
